The other results are listed elsewhere or left out.
Each sequence was assayed on PfHDP1 homeodomain (GST-tagged) (assay: gcPBM binding intensity (ln(normalized median fluorescence intensity)); higher = stronger DNA binding).
Summary of the method: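 Using an Agilent 4 × 180k array, primer-extended double-stranded 36-bp intergenic genomic probes and negative controls were exposed for 1 h to GST-fused P. falciparum DNA-binding domains expressed in E. coli. Binding was carried out in 1× PBS with 1% milk, 0.2 mg/ml BSA, 0.5% salmon testes DNA and 0.03% Triton X-100, and protein was detected with Alexa488 anti-GST antibody and a 488 nm scan. Binding intensity is the highest Masliner-normalised natural-log median intensity across replicate spots of either probe orientation.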

Row | Sequence | gcPBM binding intensity (ln)
1 | CCTTTTTATTTTTGTAGTACTACATATACATATCTG [XGTACX_site7791] | 7.15
2 | AAAAAAAAAAAAAATAAATAAATAAATAAATATATA [GTGCAC_negctrl_site382] | 6.13
3 | TATATATAAAAAAAAAGTACATATAATATAATATTT [XGTACX_site7902] | 6.27
4 | GGTGTTTTTCACAGATGTACACAAATAAAAAAGAAA [XGTACX_site4454] | 7.11
5 | AAATGGACAGTATAAAAATGGAGAATATAAAAATTT [CACACA_negctrl_site889] | 6.53
6 | TATTCAAAGAAAAACTGTACGTGTAGCAAACGTCAT [XGTACX_site7713] | 6.94
7 | ATATTAAAAAAATATAAACACACAAAAAAAAAATAT [CACACA_site8283] | 6.95
8 | AGTATTTTGTTTATCACACATATTGGAATTTTCAAT [CACACA_site4686] | 6.65
9 | AAAATTATACACACACGTACATATAAATAGAAATAT [XGTACX_site1753] | 7.07
10 | AAAATAATTCAATGTAGTACAATACAAATTGAGAGA [XGTACX_site5991] | 6.46
11 | TTTGTTGGTATGGTTACACACATTTAGGAAATAAAA [CACACA_site1411] | 6.51
12 | TCTTATAAATTAAATATAAAAAAAAAAAAAAAAAAA [XGTACX_negctrl_site77] | 6.22
13 | ATGCAATAATAATGGAGTACATATTAATATTGATCA [XGTACX_site2312] | 6.89
14 | AAAAAATATATTAAGGCACACACATACATATATATA [CACACA_site9239] | 6.98
15 | CCTTTTGGATGAAAGTGTACAGGTGAGAAAAATTCC [XGTACX_site3358] | 6.48
16 | AAAACAAATAGACACGCACACAAAAAAAAAAAAAAA [CACACA_site801] | 6.44
17 | TTAATTTCGAATTATTGTACATTAATATATCTACAG [XGTACX_site3314] | 6.41
18 | GAATAAAAAAAAAAAAAAATTTATTTTATAATAAAA [CACACA_negctrl_site1514] | 5.82
19 | ATATATATATATATATGTACATAAATATAAATTTAA [XGTACX_site8715] | 9.42

Row | Sequence | gcPBM binding intensity (ln)
20 | TCGAATATCTTATAGGTGCATCATAAATACATATGT | 9.58
21 | AATGTAAAGAACAAAACATGCAACTAGTTTACTTTT [TGCATGCA_site841] | 6.61
22 | TAATTCTTTATTTTTCGTACGTAAAACAAAAAATAT [XGTACX_site862] | 6.28
23 | TAAGTATATAAAATTACACACTATTTTTTTTCAAGT [CACACA_site1792] | 6.06
24 | TAGAAAAAAGATAGCACACACGGCCCAATATATATA [CACACA_site5354] | 6.82
25 | ATTCTTAAATGTGGTTGTACATATTATCACCTTTAA [XGTACX_site8188] | 6.3
26 | TTTTTAATTTTATATACACACATAAAAGATATGAAG [CACACA_site7470] | 6.63
27 | CGCAAAACAATGATACGTACATATATATATATATAT [XGTACX_site5883] | 9.24
28 | ATATTCTCTTAAATATGTACGTATGTATATATATAT [XGTACX_site5885] | 8.87
29 | ATATTTATTTATATCATACACACTAATATGTATATT [CACACA_site7576] | 6.55
30 | TTTTAAAACAATGAGATTCCTTTCTTTTTTTCTTTT [CACACA_negctrl_site1320] | 5.64
31 | CTTAATGATAAATACATACACACAAAAAATAATATA [CACACA_site2577] | 6.68
32 | TATCCCTTAGAATACACACCCATATGAGGGTGAACT [CACACA_site5610] | 6.2
33 | AAGAAAATGTAGAATTAGAAATAAATGAAGAAATGA [TGCATGCA_negctrl_site548] | 6.54
34 | TATATGTTTAATTTCACACACAAATATACATTTTAA [CACACA_site4171] | 6.48
35 | CATTAGCATTTTATTACACACAATAAATTAGAAGTA [CACACA_site7837] | 6.75
36 | ACACATACAACGTGGTGTACAAATAATTATAATCAA [XGTACX_site2287] | 6.8
37 | AATCTTTGTAATAAAAGTACATTAATTTTATTAATA [XGTACX_site8325] | 5.97
38 | TTTTAAATACTTTATTGTACATTATATATATATATA [XGTACX_site7021] | 8.85

Row | Sequence | gcPBM binding intensity (ln)
39 | TAAGTATATATATTTACACACATTTGTTTTTTTTTA [CACACA_site3784] | 6.56
40 | AAAAAAAAAAAAAAAAGTACATATAATAAATAATGA [XGTACX_site7931] | 6.62
41 | TATATCTTAATATTTACACACATGCGCACCCATAAA [CACACA_site5349] | 7.52
42 | ATAAATGAACAAGTGGCACACACACCGTATAACTAA [CACACA_site9047] | 6.73
43 | ATCCGTGGGTGAAATACACACATGATAATGTGAATG [CACACA_site4662] | 6.26
44 | AATTATGTGTGTCAATGTACACGATTTACATAATAT [XGTACX_site5150] | 6.33
45 | TGAAAAATATAAGGTTGTACTTACATCGGGAATAAT [XGTACX_site4701] | 6.63
46 | AATATATGGTTTCTTGATATTAAATTCAATTTAATG [CACACA_negctrl_site69] | 6.42
47 | TATATTAAAATAATCACACACATCAATTAATGGTAA [CACACA_site1234] | 6.26
48 | TTTGAATACTGAATGGTGCAAATTGTTCTCCCCATG | 10.5
49 | AGTATAACTTTTGCGCGTACACACATTTATCCTCTT [XGTACX_site429] | 7.8
50 | TACAAATGCGTATGTCAATATATGGAGAAATAAATA [TGCATGCA_negctrl_site290] | 6.44
51 | TGTATATGGTTTGTGCAAAAATTTATTAATGTGTAA [TGCATGCA_negctrl_site374] | 10.1
52 | TATAATAATATTTACACACGCATATGTTATATATAT [CACACA_site1477] | 6.77
53 | ATTTGTATATACATATGTACACATGTAGGCTCATAA [XGTACX_site1709] | 6.92
54 | TTTCGTAAACTTTATGCACACACATATACATATTTC [CACACA_site8146] | 10.2
55 | TTTTTTTTTACTAACTGTACTAAAGAAAAAAAAGGG [XGTACX_site3519] | 6.57
56 | ATAAAGGAATTTTATACACACAACATATATATATAT [CACACA_site2861] | 9.06
